In paper PMC4624786:
Positions count from the first letter of the chain named. Results are given in words; binding and its absence hold for the method and conditions named. In cells and extracts the contact can be indirect. Some entries that bind do so weakly or less than the wild type. For some of these results: Where a sequence is shown, tags or fusion partners need not be part of it.

Protein sequences, listed by entry. Tags and fused reporters are not part of them. Lines headed by an entry give the natural chain unless they say otherwise; changes in a name come on top. Residues count along the entry.
UniProt P70181: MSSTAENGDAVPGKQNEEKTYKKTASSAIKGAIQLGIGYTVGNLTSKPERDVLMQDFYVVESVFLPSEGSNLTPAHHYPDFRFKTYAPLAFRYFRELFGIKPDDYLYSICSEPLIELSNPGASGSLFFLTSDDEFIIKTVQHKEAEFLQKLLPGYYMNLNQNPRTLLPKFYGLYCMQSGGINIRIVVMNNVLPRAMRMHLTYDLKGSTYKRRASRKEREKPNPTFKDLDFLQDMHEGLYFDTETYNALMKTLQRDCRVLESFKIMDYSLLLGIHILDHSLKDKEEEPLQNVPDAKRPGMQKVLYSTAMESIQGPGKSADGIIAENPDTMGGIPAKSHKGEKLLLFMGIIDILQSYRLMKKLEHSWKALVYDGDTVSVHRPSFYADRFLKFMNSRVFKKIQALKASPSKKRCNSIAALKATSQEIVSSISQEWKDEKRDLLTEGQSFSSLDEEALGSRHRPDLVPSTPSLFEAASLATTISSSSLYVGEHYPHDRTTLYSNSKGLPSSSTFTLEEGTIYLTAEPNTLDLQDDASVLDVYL
UniProt O70161: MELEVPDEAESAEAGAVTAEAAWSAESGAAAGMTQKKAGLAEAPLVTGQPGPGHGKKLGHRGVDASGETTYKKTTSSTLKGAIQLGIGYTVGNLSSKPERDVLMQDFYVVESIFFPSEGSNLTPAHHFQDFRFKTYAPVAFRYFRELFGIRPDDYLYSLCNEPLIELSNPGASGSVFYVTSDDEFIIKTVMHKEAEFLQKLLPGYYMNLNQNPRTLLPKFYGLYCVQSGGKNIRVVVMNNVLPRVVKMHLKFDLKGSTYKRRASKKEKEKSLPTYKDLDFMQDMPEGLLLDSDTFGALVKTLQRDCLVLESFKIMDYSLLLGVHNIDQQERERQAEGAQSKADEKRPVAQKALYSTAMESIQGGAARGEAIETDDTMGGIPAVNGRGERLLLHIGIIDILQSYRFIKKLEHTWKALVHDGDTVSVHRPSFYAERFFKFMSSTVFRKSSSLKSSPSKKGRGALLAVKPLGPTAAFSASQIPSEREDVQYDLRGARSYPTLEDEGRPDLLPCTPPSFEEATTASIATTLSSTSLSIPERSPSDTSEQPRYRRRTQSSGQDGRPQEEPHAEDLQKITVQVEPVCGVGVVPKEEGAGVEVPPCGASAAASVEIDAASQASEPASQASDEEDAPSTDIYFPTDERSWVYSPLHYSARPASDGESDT
UniProt P70182: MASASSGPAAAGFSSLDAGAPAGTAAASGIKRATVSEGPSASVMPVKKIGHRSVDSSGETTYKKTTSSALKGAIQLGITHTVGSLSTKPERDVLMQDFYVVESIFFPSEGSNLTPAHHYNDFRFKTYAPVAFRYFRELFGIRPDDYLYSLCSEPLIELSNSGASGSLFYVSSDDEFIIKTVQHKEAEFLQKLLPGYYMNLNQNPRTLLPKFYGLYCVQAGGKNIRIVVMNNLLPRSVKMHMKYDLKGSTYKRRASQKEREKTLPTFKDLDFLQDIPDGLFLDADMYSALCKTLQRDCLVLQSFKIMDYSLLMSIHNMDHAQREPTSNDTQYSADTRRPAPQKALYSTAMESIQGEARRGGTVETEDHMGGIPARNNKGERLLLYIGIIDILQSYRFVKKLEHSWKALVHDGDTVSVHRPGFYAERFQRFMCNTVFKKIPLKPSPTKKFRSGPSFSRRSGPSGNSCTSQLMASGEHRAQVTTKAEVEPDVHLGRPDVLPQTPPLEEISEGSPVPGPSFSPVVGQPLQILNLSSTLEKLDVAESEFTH
UniProt P11881, residues 224-604: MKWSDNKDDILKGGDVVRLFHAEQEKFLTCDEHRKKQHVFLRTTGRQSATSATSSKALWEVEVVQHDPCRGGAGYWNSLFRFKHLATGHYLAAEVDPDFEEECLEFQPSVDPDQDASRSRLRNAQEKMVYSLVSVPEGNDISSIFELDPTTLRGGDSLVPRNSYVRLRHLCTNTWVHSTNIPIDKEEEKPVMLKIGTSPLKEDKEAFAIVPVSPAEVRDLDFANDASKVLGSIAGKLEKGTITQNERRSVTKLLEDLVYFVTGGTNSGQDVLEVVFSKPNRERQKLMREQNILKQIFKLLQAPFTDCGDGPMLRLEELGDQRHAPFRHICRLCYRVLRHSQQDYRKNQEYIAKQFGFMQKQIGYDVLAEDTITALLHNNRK
UniProt Q80SW1: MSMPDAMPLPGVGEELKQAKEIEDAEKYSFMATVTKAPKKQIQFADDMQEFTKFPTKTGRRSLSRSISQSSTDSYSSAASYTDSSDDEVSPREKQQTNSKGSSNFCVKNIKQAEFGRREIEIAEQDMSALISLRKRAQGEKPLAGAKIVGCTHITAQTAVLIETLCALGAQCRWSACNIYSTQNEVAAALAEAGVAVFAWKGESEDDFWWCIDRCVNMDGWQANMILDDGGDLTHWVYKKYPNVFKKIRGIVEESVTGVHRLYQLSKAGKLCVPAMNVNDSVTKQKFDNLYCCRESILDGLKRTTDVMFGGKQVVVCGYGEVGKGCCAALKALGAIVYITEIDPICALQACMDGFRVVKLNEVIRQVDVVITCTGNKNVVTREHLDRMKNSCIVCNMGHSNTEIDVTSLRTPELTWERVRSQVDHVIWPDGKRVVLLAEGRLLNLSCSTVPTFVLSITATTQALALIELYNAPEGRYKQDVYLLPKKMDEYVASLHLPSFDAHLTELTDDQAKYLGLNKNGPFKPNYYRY

Legend:
[1] = biological target: T1, myc-tagged phosphatidylinositol phosphate kinase type IIα (rat) (UniProt Q9R0I8); test: co-IP; as the COS-7 co-IP, but lysis buffer with 1 mM MgCl2 and 1 mM EGTA instead of 2 mM EDTA (S1 Fig A)
T1 sequence: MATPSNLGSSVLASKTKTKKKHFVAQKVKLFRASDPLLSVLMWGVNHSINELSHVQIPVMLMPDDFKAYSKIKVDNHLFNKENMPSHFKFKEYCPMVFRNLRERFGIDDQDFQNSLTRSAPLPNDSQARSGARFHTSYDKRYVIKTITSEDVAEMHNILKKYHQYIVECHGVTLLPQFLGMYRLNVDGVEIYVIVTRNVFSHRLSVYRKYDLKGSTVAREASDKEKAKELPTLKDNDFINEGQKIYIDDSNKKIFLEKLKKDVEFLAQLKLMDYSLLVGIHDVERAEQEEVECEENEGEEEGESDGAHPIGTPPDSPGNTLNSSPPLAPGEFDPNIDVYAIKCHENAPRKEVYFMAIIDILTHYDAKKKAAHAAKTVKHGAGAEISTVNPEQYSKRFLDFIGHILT

[2] = biological target: T2, myc-tagged phosphatidylinositol phosphate kinase type IIβ (rat) (UniProt O88377); test: as above
T2 sequence: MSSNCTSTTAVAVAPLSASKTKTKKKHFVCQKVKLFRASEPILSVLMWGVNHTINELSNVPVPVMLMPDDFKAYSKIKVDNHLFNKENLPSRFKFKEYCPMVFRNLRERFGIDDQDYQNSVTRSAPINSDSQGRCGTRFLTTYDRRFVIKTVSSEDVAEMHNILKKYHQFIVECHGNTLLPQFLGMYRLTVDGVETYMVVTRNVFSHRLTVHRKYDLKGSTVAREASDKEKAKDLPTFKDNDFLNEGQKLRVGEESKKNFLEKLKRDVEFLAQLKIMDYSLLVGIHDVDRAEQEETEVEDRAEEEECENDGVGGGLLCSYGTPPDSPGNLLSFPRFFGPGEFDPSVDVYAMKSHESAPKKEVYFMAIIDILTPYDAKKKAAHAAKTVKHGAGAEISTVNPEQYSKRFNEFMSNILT

[3] = biological target: myc-tagged phosphatidylinositol phosphate kinase type Iβ (mouse) (UniProt P70181); test: as above
[4] = biological target: myc-tagged phosphatidylinositol phosphate kinase type Iγ (mouse) (UniProt O70161); test: as above
GST-PIPKIα D307A (mouse) = GST-PIPKIα D307A (mouse) (UniProt P70182); test: pull-down; COS-7 cell lysates incubated with 10 μg GST fusion protein for 1 hr at 4°C, glutathione-Sepharose 4B, washed with lysis buffer (2 mM EDTA, 1% Nonidet P-40), eluted with 20 mM glutathione; Western blot; only the target purified
GST-PIPKIα D389A (mouse) = GST-PIPKIα D389A (mouse) (UniProt P70182); test: as above
[5] = biological target: IP3 binding domain of IP3R1 (residues 224–604) fused to GST (UniProt P11881); test: as above
myc-PIPKIIα D359A (rat) = biological target: T3, myc-PIPKIIα D359A (rat) (UniProt Q9R0I8); test: co-IP; COS-7 cells co-transfected with HA-IRBIT and myc-PIPK constructs; lysis buffer 10 mM Hepes pH 7.4, 100 mM NaCl, 2 mM EDTA, 1% Nonidet P-40; precipitated with anti-HA or anti-myc antibody and protein G-Sepharose at 4°C; Western blot
T3 sequence: T1 sequence with D359A

[6] = biological target: T1, myc-tagged phosphatidylinositol phosphate kinase type IIα (rat); test: as above
[7] = biological target: T4, N-terminal cytoplasmic domain of NBCe1-B (residues 1–468) fused to maltose-binding protein (UniProt Q9Y6R1); test: pull-down; COS-7 cell lysates (myc-PIPKIα or myc-PIPKIIα with or without HA-IRBIT) incubated with 5 μg MBP fusion protein for 1 hr at 4°C, amylose resin, washed with lysis buffer, eluted with 100 mM maltose; Western blot; only the target purified
T4 sequence: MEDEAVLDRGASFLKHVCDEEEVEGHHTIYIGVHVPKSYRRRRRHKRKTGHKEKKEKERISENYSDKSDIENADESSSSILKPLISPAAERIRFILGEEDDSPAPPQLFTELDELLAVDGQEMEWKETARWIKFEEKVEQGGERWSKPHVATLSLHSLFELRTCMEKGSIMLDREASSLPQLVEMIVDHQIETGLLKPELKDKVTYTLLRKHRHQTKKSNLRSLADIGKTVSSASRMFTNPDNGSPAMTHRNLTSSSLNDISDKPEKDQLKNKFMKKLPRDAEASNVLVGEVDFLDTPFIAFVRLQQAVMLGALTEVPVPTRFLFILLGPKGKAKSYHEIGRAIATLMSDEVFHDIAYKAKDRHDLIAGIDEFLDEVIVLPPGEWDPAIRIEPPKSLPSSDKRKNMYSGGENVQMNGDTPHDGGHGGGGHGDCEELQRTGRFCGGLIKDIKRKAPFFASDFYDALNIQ

Measured: binding

Hemagglutinin (HA)-tagged IRBIT (IP3R-binding protein released with inositol 1,4,5-trisphosphate) (from UniProt Q80SW1 1-530)
binds: all assays above
